Data as given in paper PMC517496.
Results are given in words; binding and its absence hold for the method and conditions named. In cells and extracts the contact can be indirect. Some binding calls cover weakened binding; strength is not graded here.

Chains of the proteins cited; added tags and fusions are not shown. Lines headed by an entry give the natural chain unless they say otherwise; changes in a name come on top. Residues count along the entry.
UniProt Q09472: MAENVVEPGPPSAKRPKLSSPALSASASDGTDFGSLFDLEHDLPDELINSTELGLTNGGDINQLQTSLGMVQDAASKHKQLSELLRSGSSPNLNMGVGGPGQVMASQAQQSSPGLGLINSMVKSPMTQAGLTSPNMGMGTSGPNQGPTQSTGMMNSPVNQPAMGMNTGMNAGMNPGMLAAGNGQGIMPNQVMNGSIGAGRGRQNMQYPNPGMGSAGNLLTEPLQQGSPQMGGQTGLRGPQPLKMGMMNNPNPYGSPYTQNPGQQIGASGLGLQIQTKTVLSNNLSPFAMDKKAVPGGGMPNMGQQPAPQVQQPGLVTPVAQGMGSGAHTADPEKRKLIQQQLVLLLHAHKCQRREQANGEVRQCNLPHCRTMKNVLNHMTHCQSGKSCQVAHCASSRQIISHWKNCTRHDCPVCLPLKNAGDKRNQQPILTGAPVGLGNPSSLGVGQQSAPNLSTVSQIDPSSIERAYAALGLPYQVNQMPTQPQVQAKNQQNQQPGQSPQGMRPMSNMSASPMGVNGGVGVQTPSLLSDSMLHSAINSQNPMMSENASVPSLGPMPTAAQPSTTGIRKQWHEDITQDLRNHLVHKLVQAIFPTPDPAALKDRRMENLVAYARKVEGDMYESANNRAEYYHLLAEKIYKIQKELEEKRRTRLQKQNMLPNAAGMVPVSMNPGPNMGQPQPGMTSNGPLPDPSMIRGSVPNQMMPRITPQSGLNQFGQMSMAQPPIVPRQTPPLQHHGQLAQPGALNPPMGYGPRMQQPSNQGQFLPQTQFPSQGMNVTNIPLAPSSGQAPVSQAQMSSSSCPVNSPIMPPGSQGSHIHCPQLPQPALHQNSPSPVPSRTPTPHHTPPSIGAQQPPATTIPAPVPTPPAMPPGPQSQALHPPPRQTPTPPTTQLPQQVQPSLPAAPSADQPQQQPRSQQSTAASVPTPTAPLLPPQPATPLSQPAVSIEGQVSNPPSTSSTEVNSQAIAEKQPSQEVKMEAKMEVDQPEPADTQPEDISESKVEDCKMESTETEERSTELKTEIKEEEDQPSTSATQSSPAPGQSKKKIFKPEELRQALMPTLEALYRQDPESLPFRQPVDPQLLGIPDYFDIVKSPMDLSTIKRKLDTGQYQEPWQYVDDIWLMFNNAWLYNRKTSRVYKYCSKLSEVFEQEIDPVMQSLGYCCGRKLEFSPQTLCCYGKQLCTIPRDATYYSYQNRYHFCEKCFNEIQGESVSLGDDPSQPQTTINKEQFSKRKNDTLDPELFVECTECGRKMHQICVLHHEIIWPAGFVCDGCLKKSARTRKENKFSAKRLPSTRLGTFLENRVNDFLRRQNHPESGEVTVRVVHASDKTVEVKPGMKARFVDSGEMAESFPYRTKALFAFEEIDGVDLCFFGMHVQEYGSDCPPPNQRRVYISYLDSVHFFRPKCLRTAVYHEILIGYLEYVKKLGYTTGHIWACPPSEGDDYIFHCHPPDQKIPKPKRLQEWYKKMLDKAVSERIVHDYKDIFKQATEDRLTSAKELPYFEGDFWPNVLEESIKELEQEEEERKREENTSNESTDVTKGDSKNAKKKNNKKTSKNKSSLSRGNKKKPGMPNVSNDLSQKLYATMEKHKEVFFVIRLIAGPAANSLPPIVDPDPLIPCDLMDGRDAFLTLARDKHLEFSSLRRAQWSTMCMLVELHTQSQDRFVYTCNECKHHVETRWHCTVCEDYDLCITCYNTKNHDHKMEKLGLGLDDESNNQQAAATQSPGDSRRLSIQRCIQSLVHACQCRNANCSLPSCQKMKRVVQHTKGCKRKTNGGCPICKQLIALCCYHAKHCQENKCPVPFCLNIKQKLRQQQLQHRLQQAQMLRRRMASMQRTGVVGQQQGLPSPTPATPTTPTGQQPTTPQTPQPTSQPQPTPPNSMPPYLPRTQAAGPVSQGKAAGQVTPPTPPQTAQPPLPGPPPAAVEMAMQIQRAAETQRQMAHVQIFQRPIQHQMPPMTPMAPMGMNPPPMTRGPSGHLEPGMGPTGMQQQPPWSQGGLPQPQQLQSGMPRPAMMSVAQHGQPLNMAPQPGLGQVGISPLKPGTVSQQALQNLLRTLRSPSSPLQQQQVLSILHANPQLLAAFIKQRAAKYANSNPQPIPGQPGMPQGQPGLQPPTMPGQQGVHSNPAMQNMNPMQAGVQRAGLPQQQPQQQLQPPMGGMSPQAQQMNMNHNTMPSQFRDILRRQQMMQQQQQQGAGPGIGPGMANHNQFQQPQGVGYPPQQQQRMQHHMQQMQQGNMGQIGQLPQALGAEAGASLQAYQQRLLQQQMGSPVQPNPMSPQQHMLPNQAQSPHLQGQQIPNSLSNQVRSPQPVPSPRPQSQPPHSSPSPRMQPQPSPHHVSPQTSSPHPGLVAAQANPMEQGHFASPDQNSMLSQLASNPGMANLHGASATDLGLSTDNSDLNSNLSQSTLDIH
GST-C/H1 fusion protein (p300 328-424, construct no. 9): residues 328-424 of Q09472
GST-ΔC/H1-KIX fusion protein (p300 436-661, construct no. 10): residues 436-661 of Q09472
UniProt Q92831: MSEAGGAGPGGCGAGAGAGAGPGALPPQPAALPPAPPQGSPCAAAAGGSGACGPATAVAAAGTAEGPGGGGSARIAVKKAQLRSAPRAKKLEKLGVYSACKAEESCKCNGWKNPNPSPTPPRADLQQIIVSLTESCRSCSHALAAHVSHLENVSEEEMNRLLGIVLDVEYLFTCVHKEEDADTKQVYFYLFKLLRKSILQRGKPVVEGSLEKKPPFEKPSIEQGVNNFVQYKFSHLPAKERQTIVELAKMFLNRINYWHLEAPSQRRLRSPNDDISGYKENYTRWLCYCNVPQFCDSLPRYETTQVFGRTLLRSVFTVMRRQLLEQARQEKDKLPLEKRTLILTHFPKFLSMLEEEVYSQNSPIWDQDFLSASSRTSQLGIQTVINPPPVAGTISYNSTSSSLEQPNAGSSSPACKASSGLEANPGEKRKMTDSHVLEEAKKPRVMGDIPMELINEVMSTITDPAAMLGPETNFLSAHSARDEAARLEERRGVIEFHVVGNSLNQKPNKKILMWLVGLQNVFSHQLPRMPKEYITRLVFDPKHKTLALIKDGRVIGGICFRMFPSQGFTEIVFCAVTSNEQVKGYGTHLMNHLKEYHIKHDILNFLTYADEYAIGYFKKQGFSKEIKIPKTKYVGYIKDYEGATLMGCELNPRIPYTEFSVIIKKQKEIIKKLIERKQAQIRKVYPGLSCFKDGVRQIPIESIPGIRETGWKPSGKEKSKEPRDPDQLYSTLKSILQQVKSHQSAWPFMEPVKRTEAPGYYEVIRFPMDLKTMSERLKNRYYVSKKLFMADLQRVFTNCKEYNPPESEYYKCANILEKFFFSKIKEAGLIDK

T1: Bel1/Tas trans-activator of primate foamy virus (PFV) (primate foamy virus (PFV)) (UniProt P14353)
T1 sequence: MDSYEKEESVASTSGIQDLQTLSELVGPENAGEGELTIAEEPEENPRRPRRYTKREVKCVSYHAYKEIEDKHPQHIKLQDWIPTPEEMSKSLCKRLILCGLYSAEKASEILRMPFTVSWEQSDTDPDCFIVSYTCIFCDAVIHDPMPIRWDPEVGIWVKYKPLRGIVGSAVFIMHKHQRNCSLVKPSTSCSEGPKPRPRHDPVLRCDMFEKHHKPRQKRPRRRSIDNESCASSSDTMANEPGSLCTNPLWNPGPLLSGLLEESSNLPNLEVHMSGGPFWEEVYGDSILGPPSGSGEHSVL

B1: Bel1/Tas trans-activator of primate foamy virus (PFV) (protein, UniProt P14353 1-300)
chain: T1 sequence

Assays:
[1] = target: T1, Bel1/Tas trans-activator of primate foamy virus (PFV) (primate foamy virus (PFV)); test: co-IP; 293T cells cotransfected with pbel1s and FLAG-tagged partner; lysis in 150 mM NaCl, 20 mM Tris-HCl pH 7.5, 1% Triton X-100; precipitated with rabbit anti-Bel1 antiserum and protein A-Sepharose, washed three times with lysis buffer; immunoblot with monoclonal anti-FLAG
[2] = target: T1, Bel1/Tas trans-activator of primate foamy virus (PFV) (primate foamy virus (PFV)); test: co-IP; 293T cells cotransfected with p300FL (10 or 20 ug) and pbel1s, labelled with [35S]-Met and -Cys; precleared lysates precipitated with anti-Bel1/Tas antibody; SDS-PAGE and autoradiography
[3] = target: T1, Bel1/Tas trans-activator of primate foamy virus (PFV) (primate foamy virus (PFV)); test: co-IP; 293T cells cotransfected with SRC-1a and pbel1s; immunoprecipitations and Western blot analysis under different conditions; anti-Bel1 antiserum, immunoblot with antibody against SRC-1
[4] = target: GST-C/H1 fusion protein (p300 328-424, construct no. 9) (human) (UniProt Q09472); test: pull-down; GST fusion bound to glutathione Sepharose 4B mixed with lysate of pbel1s-transfected 293T cells; 4 °C overnight in binding buffer, extensive washing; immunoblot with antibody against Bel1/Tas; only the target purified
[5] = target: GST-ΔC/H1-KIX fusion protein (p300 436-661, construct no. 10) (human) (UniProt Q09472); test: as above

Row | Molecule | binding [1] | further results
1 | FLAG-p300ΔN-ΔC/H1-ΔKIX (construct no. 8), residues 1 to 196 of p300 (from UniProt Q09472 1-196) (domain or fragment) | no binding | –
2 | FLAG-p300FL (full-length p300, construct no. 1) (from UniProt Q09472 1-2414) | – | binding [2]: binds
3 | FLAG-p300 construct no. 7, residues 1 through 347 of p300 (from UniProt Q09472 1-347) (domain or fragment) | no binding | –
4 | FLAG-SRC-1a (steroid receptor coactivator 1a) (from UniProt Q15788-1 1-1441) | – | binding [3]: no binding
5 | FLAG-PCAF (p300/CBP-associated factor) (from UniProt Q92831 1-832) | binds | –
6 | FLAG-p300-C/H1-ΔKIX (construct no. 6), residues 1 to 424 of p300 (from UniProt Q09472 1-424) (domain or fragment) | binds | –
7 | B1 | – | binding [4]: binds; binding [5]: no binding
